Measured values as given in article PMC3387134.
Results are given in words; binding and its absence hold for the method and conditions named. Binding seen in cells or lysates may run through a third protein. Some binding calls cover weakened binding; strength is not graded here. For part of these data: Tags and fused reporters may be left off the sequences shown.

Protein sequences, listed by entry. Tags and fused reporters are not part of them.
UniProt P35222: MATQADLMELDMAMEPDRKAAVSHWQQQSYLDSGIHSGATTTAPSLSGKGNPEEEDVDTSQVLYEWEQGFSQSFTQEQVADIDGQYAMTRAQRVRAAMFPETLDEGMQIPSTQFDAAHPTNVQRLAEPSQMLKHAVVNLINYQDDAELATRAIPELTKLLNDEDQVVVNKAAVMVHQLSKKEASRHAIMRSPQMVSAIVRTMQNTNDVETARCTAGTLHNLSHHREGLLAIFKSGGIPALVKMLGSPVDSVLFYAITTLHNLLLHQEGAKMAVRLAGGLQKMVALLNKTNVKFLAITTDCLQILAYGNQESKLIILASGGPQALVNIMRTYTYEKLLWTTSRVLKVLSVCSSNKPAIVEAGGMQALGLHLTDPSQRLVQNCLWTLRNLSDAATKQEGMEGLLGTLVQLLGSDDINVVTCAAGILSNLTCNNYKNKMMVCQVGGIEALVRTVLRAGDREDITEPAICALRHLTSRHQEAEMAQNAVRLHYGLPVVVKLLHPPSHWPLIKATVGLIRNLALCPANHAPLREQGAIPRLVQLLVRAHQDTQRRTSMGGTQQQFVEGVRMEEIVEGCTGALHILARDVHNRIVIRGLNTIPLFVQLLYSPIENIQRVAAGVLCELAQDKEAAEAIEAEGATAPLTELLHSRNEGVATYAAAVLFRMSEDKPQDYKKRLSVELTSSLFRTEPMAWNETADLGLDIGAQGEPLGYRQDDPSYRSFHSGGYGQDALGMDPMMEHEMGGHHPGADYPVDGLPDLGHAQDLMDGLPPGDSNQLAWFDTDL
UniProt Q9WV60: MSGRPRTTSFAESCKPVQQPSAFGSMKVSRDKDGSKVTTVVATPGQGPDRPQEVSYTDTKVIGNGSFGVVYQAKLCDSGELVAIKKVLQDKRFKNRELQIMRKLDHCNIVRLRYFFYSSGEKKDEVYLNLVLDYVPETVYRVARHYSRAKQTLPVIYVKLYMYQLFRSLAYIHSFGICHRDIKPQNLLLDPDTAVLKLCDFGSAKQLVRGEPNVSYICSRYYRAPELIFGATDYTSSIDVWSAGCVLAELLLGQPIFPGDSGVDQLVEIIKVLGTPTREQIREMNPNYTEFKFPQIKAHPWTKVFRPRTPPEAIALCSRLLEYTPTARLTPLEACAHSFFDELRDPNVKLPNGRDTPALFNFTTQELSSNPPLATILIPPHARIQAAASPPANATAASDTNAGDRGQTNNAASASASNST
UniProt Q61315: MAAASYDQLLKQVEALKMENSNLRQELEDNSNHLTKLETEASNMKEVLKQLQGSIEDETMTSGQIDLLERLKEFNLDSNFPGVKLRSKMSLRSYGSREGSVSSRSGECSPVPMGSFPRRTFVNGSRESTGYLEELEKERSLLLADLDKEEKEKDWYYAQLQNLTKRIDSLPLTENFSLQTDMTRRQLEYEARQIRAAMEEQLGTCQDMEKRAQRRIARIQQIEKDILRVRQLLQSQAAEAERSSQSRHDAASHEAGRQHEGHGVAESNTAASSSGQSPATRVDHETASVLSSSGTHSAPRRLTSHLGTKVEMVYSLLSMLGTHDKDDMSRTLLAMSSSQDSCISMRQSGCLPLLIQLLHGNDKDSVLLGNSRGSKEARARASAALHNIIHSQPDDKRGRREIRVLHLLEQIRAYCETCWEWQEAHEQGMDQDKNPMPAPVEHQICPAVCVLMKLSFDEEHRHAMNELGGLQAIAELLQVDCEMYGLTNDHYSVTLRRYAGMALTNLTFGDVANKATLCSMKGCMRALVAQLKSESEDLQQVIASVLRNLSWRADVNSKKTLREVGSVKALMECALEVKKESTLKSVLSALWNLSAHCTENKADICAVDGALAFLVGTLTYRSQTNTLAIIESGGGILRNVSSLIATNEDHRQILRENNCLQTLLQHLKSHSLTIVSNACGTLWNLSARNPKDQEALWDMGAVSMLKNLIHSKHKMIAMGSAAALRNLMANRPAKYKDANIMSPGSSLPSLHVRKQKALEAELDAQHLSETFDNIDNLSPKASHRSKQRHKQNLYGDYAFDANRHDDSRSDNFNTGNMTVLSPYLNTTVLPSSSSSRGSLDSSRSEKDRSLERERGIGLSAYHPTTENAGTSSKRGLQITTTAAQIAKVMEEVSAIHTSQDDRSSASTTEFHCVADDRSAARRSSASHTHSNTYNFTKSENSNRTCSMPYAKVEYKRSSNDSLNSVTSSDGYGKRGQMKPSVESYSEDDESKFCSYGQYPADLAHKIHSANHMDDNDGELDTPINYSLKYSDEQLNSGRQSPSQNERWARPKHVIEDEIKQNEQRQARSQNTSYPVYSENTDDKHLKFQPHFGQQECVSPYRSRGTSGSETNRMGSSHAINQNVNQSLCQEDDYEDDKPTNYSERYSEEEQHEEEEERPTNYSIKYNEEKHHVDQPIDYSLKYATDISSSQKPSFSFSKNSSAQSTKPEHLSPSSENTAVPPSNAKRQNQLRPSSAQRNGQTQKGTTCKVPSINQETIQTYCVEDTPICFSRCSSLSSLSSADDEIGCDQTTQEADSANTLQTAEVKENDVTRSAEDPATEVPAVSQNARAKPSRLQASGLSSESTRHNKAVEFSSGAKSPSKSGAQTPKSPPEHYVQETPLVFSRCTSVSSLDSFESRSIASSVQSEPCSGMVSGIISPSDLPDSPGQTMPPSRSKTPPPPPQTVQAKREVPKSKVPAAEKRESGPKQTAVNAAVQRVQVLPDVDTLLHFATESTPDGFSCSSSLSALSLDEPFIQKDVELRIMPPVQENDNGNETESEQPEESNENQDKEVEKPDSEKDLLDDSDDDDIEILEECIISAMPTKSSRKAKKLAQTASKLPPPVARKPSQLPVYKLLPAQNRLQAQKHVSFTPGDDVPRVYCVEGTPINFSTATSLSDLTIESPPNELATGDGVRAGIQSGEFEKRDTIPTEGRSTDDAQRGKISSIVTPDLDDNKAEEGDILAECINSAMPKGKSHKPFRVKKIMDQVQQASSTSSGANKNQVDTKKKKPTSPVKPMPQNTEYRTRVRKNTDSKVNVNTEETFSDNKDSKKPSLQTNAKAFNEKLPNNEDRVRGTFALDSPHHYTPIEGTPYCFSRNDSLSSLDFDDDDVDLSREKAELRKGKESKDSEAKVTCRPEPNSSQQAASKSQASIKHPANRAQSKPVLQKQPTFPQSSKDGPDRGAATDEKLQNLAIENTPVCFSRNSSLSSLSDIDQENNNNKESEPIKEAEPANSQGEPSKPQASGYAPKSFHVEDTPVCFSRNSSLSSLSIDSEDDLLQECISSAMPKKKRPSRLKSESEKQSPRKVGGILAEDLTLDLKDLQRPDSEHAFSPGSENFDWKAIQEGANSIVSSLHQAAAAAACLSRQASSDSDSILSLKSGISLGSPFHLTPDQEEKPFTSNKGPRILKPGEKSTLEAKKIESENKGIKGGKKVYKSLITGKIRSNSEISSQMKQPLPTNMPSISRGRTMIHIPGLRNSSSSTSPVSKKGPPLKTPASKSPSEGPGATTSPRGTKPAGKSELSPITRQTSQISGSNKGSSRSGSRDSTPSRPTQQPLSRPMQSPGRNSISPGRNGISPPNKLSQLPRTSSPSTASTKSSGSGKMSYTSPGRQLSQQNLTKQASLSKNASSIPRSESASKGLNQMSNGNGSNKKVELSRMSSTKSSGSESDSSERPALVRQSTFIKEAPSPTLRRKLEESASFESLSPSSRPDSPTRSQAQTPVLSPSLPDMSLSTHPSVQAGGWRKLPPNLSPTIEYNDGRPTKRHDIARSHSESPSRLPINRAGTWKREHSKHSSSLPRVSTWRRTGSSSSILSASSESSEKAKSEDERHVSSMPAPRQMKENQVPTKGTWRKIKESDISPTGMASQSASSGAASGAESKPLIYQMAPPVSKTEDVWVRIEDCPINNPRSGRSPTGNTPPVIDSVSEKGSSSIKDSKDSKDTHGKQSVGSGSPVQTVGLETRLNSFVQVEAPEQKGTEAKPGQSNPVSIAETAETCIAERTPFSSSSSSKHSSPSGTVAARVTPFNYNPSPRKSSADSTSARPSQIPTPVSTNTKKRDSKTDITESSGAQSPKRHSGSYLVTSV
UniProt P49841: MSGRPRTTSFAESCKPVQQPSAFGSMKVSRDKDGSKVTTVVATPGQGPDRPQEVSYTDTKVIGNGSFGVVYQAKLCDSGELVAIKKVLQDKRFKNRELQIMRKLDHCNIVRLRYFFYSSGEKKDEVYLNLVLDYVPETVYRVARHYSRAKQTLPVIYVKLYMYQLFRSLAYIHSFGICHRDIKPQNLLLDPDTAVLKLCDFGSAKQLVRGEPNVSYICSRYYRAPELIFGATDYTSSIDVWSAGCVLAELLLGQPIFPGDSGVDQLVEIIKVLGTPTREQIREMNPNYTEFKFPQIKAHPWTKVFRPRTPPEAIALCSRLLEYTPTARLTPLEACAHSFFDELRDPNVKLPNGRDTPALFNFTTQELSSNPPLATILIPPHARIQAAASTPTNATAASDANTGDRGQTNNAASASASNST
UniProt Q02248: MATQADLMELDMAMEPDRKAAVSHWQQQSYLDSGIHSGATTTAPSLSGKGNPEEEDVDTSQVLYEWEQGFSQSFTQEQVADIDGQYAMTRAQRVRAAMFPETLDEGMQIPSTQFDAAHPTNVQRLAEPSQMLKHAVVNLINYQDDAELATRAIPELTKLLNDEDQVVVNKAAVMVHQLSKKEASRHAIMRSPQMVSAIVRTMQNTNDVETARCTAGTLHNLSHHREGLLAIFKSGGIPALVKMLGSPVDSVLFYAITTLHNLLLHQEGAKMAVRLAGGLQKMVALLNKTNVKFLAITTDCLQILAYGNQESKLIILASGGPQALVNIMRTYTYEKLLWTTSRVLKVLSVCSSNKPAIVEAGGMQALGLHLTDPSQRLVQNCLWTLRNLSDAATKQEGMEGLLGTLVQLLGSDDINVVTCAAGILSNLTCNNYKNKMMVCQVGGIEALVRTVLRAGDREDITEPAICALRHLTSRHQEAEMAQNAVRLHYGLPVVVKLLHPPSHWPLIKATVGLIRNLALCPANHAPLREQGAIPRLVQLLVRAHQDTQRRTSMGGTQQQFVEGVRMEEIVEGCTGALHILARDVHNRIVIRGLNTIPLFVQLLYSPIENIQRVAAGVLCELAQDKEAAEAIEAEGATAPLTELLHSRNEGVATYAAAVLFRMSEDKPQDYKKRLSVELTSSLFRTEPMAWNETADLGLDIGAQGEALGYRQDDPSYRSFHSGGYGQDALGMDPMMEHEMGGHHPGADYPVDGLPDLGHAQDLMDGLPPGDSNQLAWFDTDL

T1: Flag-tagged 14-3-3σ (UniProt O70456)
T1 sequence: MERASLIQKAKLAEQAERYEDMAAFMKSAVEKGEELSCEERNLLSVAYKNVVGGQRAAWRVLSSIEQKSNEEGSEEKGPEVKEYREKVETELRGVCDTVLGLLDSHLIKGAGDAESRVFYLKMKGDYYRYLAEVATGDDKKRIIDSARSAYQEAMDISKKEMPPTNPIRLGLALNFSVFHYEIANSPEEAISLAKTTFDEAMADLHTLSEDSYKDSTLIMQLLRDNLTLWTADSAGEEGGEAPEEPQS


Assays:
HA-tagged β-catenin = HA-tagged β-catenin (UniProt P35222); test: co-IP; CCE cells co-transfected with HA-tagged β-catenin with or without 14-3-3σ vector, RIPA lysate; IP with anti-HA antibody, Western blot for GSK-3β, p-GSK-3β, APC, axin
Flag-tagged 14-3-3σ [1] = target: T1, Flag-tagged 14-3-3σ; test: co-IP; mESCs (CCE; also R1 and D3 for 14-3-3σ) transfected with a Flag-tagged 14-3-3 isoform, lysed in RIPA buffer; IP with anti-Flag antibody, Western blot for endogenous proteins
Flag-tagged 14-3-3σ [2] = target: T1, Flag-tagged 14-3-3σ; test: co-IP; CCE cells co-transfected with 14-3-3σ-Flag and GSK-3β WT, S9A or T309A, RIPA lysate; IP with anti-Flag antibody, Western blot with anti-GSK-3β antibody
[3] = target: glycogen synthase kinase 3β (GSK-3β), endogenous (mouse (endogenous in CCE, R1 and D3 mESC)) (UniProt Q9WV60); test: co-IP; CCE cells, untransfected or transfected with Flag-14-3-3σ; IP with GSK-3β antibody, Western blot for 14-3-3σ or Flag; cells with or without RA (48 h), Wnt3a (10 ng/mL), DKK-1 (1 ng/mL)

| Molecule | binding (Flag-tagged 14-3-3σ [1]) | binding [3] | other results |
| --- | --- | --- | --- |
| APC (adenomatous polyposis coli), endogenous (from UniProt Q61315 1-2845) | no binding | – | binding (HA-tagged β-catenin): binds |
| GSK-3β wild-type (WT), transfected (from UniProt P49841 1-420) (enzyme) | – | – | binding (Flag-tagged 14-3-3σ [2]): binds |

Further lines, with some results ahead:

| binding (Flag-tagged 14-3-3σ [1]) | binding [3] | Molecule | other results |
| --- | --- | --- | --- |
| no binding | – | β-catenin, endogenous (from UniProt Q02248 1-781) | – |
| – | binds | 14-3-3σ, endogenous (protein, UniProt O70456 1-248) MERASLIQKAKLAEQAERYEDMAAFMKSAVEKGEELSCEERNLLSVAYKNVVGGQRAAWRVLSSIEQKSNEEGSEEKGPEVKEYREKVETELRGVCDTVLGLLDSHLIKGAGDAESRVFYLKMKGDYYRYLAEVATGDDKKRIIDSARSAYQEAMDISKKEMPPTNPIRLGLALNFSVFHYEIANSPEEAISLAKTTFDEAMADLHTLSEDSYKDSTLIMQLLRDNLTLWTADSAGEEGGEAPEEPQS | – |
| – | binds | Flag-tagged 14-3-3σ (protein, UniProt O70456 1-248) MERASLIQKAKLAEQAERYEDMAAFMKSAVEKGEELSCEERNLLSVAYKNVVGGQRAAWRVLSSIEQKSNEEGSEEKGPEVKEYREKVETELRGVCDTVLGLLDSHLIKGAGDAESRVFYLKMKGDYYRYLAEVATGDDKKRIIDSARSAYQEAMDISKKEMPPTNPIRLGLALNFSVFHYEIANSPEEAISLAKTTFDEAMADLHTLSEDSYKDSTLIMQLLRDNLTLWTADSAGEEGGEAPEEPQS | – |
